# Data taken from the supplement of paper PMC8728848.
# The other results are listed elsewhere or left out.
# How the values were obtained:
# Experiment in all cases: glycan array binding signal (z-score within array); higher = stronger binding
# Conditions in all cases: glycan notation: IUPAC condensed, linker removed
# [1] = target: Fuc(a1-3)[Gal(b1-4)]GlcNAc(b1-4)Gal(b1-4)[Fuc(a1-3)]GlcNAc
# How it was run: (§1)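 Arrays were curated from the Consortium for Functional Glycomics database, 3228 in total, and kept only where the protein sequence was available. Binding is expressed as a within-array Z-score. This score was averaged across arrays of the same protein sequence at different concentrations or buffers and across linkers, and negative values can be read as non-binding.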
# [2] = target: Fuc(a1-3)[Gal(b1-4)]GlcNAc(b1-4)Gal(b1-4)[Fuc(a1-3)]GlcNAc(b1-4)Gal(b1-4)[Fuc(a1-3)]GlcNAc
# How it was run: as §1
# [3] = target: Fuc(a1-3)[Gal(b1-4)]GlcNAc(b1-6)GalNAc
# How it was run: as §1
# [4] = target: Fuc(a1-3)[Gal(b1-4)]GlcNAc(b1-6)[Gal(b1-3)GlcNAc(b1-3)]Gal(b1-4)Glc
# How it was run: as §1
# [5] = target: Fuc(a1-3)[Gal(b1-4)]GlcNAc6S
# How it was run: as §1
# [6] = target: Fuc(a1-3)[Gal3S(b1-4)]Glc
# How it was run: as §1
# [7] = target: Fuc(a1-3)[Gal3S(b1-4)]GlcNAc
# How it was run: as §1
# [8] = target: Fuc(a1-3)[Gal3S(b1-4)]GlcNAc6S
# How it was run: as §1
# [9] = target: Fuc(a1-3)[GalNAc(b1-4)]GlcNAc
# How it was run: as §1
# [10] = target: Fuc(a1-3)[GalNAc(b1-4)]GlcNAc6S
# How it was run: as §1
# [11] = target: Fuc(a1-4)GlcNAc
# How it was run: as §1
# [12] = target: Fuc(b1-3)GlcNAc
# How it was run: as §1
# [13] = target: Gal(a1-2)Gal
# How it was run: as §1
# [14] = target: Gal(a1-3)Gal
# How it was run: as §1
# [15] = target: Gal(a1-3)Gal(b1-3)GlcNAc
# How it was run: as §1
# [16] = target: Gal(a1-3)Gal(b1-3)GlcNAc(b1-2)Man
# How it was run: as §1
# [17] = target: Gal(a1-3)Gal(b1-3)GlcNAc(b1-2)Man(a1-3)[Gal(a1-3)Gal(b1-3)GlcNAc(b1-2)Man(a1-6)]Man(b1-4)GlcNAc(b1-4)GlcNAc
# How it was run: as §1
# [18] = target: Gal(a1-3)Gal(b1-3)GlcNAc(b1-3)GalNAc
# How it was run: as §1
# [19] = target: Gal(a1-3)Gal(b1-3)GlcNAc(b1-6)GalNAc
# How it was run: as §1
# [20] = target: Gal(a1-3)Gal(b1-3)[Fuc(a1-4)]GlcNAc(b1-2)Man(a1-3)[Gal(a1-3)Gal(b1-3)[Fuc(a1-4)]GlcNAc(b1-2)Man(a1-6)]Man(b1-4)GlcNAc(b1-4)GlcNAc
# How it was run: as §1
# [21] = target: Gal(a1-3)Gal(b1-4)Glc
# How it was run: as §1
# [22] = target: Gal(a1-3)Gal(b1-4)GlcNAc
# How it was run: as §1
# [23] = target: Gal(a1-3)Gal(b1-4)GlcNAc(b1-2)Man
# How it was run: as §1
# [24] = target: Gal(a1-3)Gal(b1-4)GlcNAc(b1-2)Man(a1-3)[Gal(a1-3)Gal(b1-4)GlcNAc(b1-2)Man(a1-6)]Man(b1-4)GlcNAc(b1-4)GlcNAc
# How it was run: as §1
# [25] = target: Gal(a1-3)Gal(b1-4)GlcNAc(b1-3)GalNAc
# How it was run: as §1
# [26] = target: Gal(a1-3)Gal(b1-4)GlcNAc(b1-6)GalNAc
# How it was run: as §1
# [27] = target: Gal(a1-3)Gal(b1-4)[Fuc(a1-3)]GlcNAc
# How it was run: as §1
# [28] = target: Gal(a1-3)Gal(b1-4)[Fuc(a1-3)]GlcNAc(b1-2)Man(a1-3)[Gal(a1-3)Gal(b1-4)[Fuc(a1-3)]GlcNAc(b1-2)Man(a1-6)]Man(b1-4)GlcNAc(b1-4)GlcNAc
# How it was run: as §1
# [29] = target: Gal(a1-3)GalNAc
# How it was run: as §1
# [30] = target: Gal(a1-3)[Gal(a1-4)]Gal(b1-4)GlcNAc
# How it was run: as §1
# [31] = target: Gal(a1-4)Gal(b1-3)GlcNAc(b1-2)Man(a1-3)[Gal(a1-4)Gal(b1-3)GlcNAc(b1-2)Man(a1-6)]Man(b1-4)GlcNAc(b1-4)GlcNAc
# How it was run: as §1
# [32] = target: Gal(a1-4)Gal(b1-4)Glc
# How it was run: as §1
# [33] = target: Gal(a1-4)Gal(b1-4)GlcNAc
# How it was run: as §1
# [34] = target: Gal(a1-4)Gal(b1-4)GlcNAc(b1-2)Man(a1-3)[Gal(a1-4)Gal(b1-4)GlcNAc(b1-2)Man(a1-6)]Man(b1-4)GlcNAc(b1-4)GlcNAc
# How it was run: as §1
# [35] = target: Gal(a1-4)Gal(b1-4)GlcNAc(b1-3)Gal(b1-4)Glc
# How it was run: as §1
# [36] = target: Gal(a1-4)GlcNAc
# How it was run: as §1
# [37] = target: Gal(a1-6)Glc
# How it was run: as §1
# [38] = target: Gal(b1-2)Gal
# How it was run: as §1
# [39] = target: Gal(b1-3)Gal
# How it was run: as §1
# [40] = target: Gal(b1-3)Gal(b1-4)GlcNAc
# How it was run: as §1
# [41] = target: Gal(b1-3)Gal(b1-4)GlcNAc(b1-2)Man(a1-3)[Gal(b1-3)Gal(b1-4)GlcNAc(b1-2)Man(a1-6)]Man(b1-4)GlcNAc(b1-4)GlcNAc
# How it was run: as §1
# [42] = target: Gal(b1-3)GalNAc
# How it was run: as §1
# [43] = target: Gal(b1-3)GalNAc(a1-3)[Fuc(a1-2)]Gal(b1-4)Glc
# How it was run: as §1
# [44] = target: Gal(b1-3)GalNAc(a1-3)[Fuc(a1-2)]Gal(b1-4)GlcNAc
# How it was run: as §1
# [45] = target: Gal(b1-3)GalNAc(b1-3)Gal
# How it was run: as §1
binder,measurement,setting,value
"Gal 1 (Mus musculus), P16045 (protein) MACGLVASNLNLKPGECLKVRGEVASDAKSFVLNLGKDSNNLCLHFNPRFNAHGDANTIVCNTKEDGTWGTEHREPAFPFQPGSITEVCITFDQADLTIKLPDGHEFKFPNRLNMEAINYMAADGDFKIKCVAFE",glycan array binding signal (z-score),[1],-0.186
same,glycan array binding signal (z-score),[2],-0.42
same,glycan array binding signal (z-score),[3],-0.072
same,glycan array binding signal (z-score),[4],-0.15
same,glycan array binding signal (z-score),[5],-0.314
same,glycan array binding signal (z-score),[6],1.23
same,glycan array binding signal (z-score),[7],-0.226
same,glycan array binding signal (z-score),[8],-0.27
same,glycan array binding signal (z-score),[9],-0.277
same,glycan array binding signal (z-score),[10],-0.325
same,glycan array binding signal (z-score),[11],-0.353
same,glycan array binding signal (z-score),[12],-0.397
same,glycan array binding signal (z-score),[13],-0.218
same,glycan array binding signal (z-score),[14],-0.382
same,glycan array binding signal (z-score),[15],0.737
same,glycan array binding signal (z-score),[16],-0.17
same,glycan array binding signal (z-score),[17],-0.163
same,glycan array binding signal (z-score),[18],-0.23
same,glycan array binding signal (z-score),[19],-0.163
same,glycan array binding signal (z-score),[20],-0.211
same,glycan array binding signal (z-score),[21],-0.31
same,glycan array binding signal (z-score),[22],-0.167
same,glycan array binding signal (z-score),[23],0.445
same,glycan array binding signal (z-score),[24],4.96
same,glycan array binding signal (z-score),[25],-0.094
same,glycan array binding signal (z-score),[26],-0.27
same,glycan array binding signal (z-score),[27],-0.121
same,glycan array binding signal (z-score),[28],0.101
same,glycan array binding signal (z-score),[29],-0.186
same,glycan array binding signal (z-score),[30],-0.36
same,glycan array binding signal (z-score),[31],-0.269
same,glycan array binding signal (z-score),[32],-0.376
same,glycan array binding signal (z-score),[33],-0.318
same,glycan array binding signal (z-score),[34],-0.146
same,glycan array binding signal (z-score),[35],-0.303
same,glycan array binding signal (z-score),[36],-0.365
same,glycan array binding signal (z-score),[37],0.039
same,glycan array binding signal (z-score),[38],0.468
same,glycan array binding signal (z-score),[39],-0.303
same,glycan array binding signal (z-score),[40],-0.195
same,glycan array binding signal (z-score),[41],0.8
same,glycan array binding signal (z-score),[42],-0.273
same,glycan array binding signal (z-score),[43],-0.41
same,glycan array binding signal (z-score),[44],-0.357
same,glycan array binding signal (z-score),[45],-0.391
